According to the antibiotic and cytotoxicity screens of Wong et al. (2023):
This is one part of the list.

Assays:
HSkMC = human skeletal muscle cells; assay: cytotoxicity call (relative viability < 0.9); conditions: 10 µM
HepG2 = assay: cytotoxicity call (relative viability < 0.9); conditions: 10 µM
S. aureus RN4220 = assay: growth inhibition call (relative growth <= 0.2); conditions: 50 µM

| SMILES | cytotoxicity call (HSkMC) | cytotoxicity call (HepG2) | growth inhibition call (S. aureus RN4220) |
| --- | --- | --- | --- |
| C[C@@H]1CN([C@@H](C)CO)C(=O)c2cccc(NC(=O)Nc3cccc4ccccc34)c2O[C@@H]1CN(C)Cc1ccc(Cl)c(Cl)c1 | inactive | inactive | inactive |
| C[C@@H]1CCCCO[C@@H](CN(C)Cc2ccc3c(c2)OCO3)[C@H](C)CN([C@H](C)CO)C(=O)c2cc(NC(=O)Nc3ccccc3)ccc2O1 | inactive | inactive | inactive |
| C[C@H]1CN([C@@H](C)CO)C(=O)c2cc(NS(=O)(=O)c3cn(C)cn3)ccc2O[C@@H]1CN(C)S(=O)(=O)c1ccccc1 | inactive | inactive | inactive |
| CC(C)(/N=N/C(C)(C)C(=N)N)C(=N)N | inactive | inactive | inactive |
| C[C@@H]1CCCCO[C@H](CN(C)C(=O)C2CCCCC2)[C@H](C)CN([C@H](C)CO)C(=O)c2cc(NC(=O)Nc3cccc4ccccc34)ccc2O1 | inactive | inactive | inactive |
| C[C@@H]1CCCCO[C@H](CN(C)Cc2ccc(C(F)(F)F)cc2)[C@H](C)CN([C@H](C)CO)C(=O)c2cc(NC(=O)Nc3ccc4c(c3)OCO4)ccc2O1 | inactive | active | inactive |
| C[C@H]1CN([C@@H](C)CO)C(=O)c2cccc(NS(C)(=O)=O)c2O[C@H]1CN(C)S(=O)(=O)c1cn(C)cn1 | inactive | inactive | inactive |
| CN(C)N(C)C(=O)[C@@]1(Cc2ccccc2)CCCN(C(=O)[C@@H](Cc2c[nH]c3ccccc23)NC(=O)C(C)(C)N)C1 | inactive | inactive | inactive |
| Cn1c(=O)n2n(c1=O)[C@H](C1CC1)C=C1CN3[C@@H]([C@H](CCn4cc(CCC(=O)NO)nn4)OC(=O)[C@@H]3Cc3ccccc3)[C@@H]12 | inactive | inactive | inactive |
| Cc1ccc(S(=O)(=O)N2C[C@@H](O)COC[C@H]3O[C@H](CC(=O)NCc4ccccc4C(F)(F)F)CC[C@@H]32)cc1 | inactive | inactive | inactive |
| O=C(CN1CCOCC1)N[C@@H]1CC[C@@H](CCNC(=O)C2CCCCC2)O[C@@H]1CO | inactive | inactive | inactive |
| C[C@@H]1CCCCO[C@H](CN(C)Cc2ccc(C(F)(F)F)cc2)[C@H](C)CN([C@@H](C)CO)C(=O)c2cc(NC(=O)CCCN(C)C)ccc2O1 | inactive | active | inactive |
| COc1ccc(NC(=O)N(C)C[C@@H]2OCCCC[C@H](C)Oc3ccc(NS(=O)(=O)c4cccs4)cc3C(=O)N([C@H](C)CO)C[C@@H]2C)cc1 | inactive | inactive | inactive |
| C[C@@H]1CN([C@@H](C)CO)C(=O)c2ccccc2-c2ccccc2CO[C@@H]1CN(C)C(=O)Nc1ccc(F)cc1 | inactive | inactive | inactive |
| C[C@H]1CN([C@@H](C)CO)S(=O)(=O)c2ccc(C#Cc3ccccc3)cc2O[C@@H]1CN(C)C(=O)c1ccccn1 | inactive | inactive | inactive |
| C[C@@H]1CCCCO[C@@H](CN(C)C(=O)Nc2ccc3c(c2)OCO3)[C@@H](C)CN([C@H](C)CO)C(=O)c2cc(NS(=O)(=O)c3ccc(F)cc3)ccc2O1 | inactive | inactive | inactive |
| COc1cc(/C=C/c2cc(/C=C/c3ccc(O)c(OC)c3)n(CCc3ccccc3)c(=S)n2)ccc1O | inactive | inactive | inactive |
| CC(=O)NCC(=O)N1CCC2(CC1)CN(c1cnn(C)c1)C(=O)CO2 | inactive | inactive | inactive |
| COc1ccc(S(=O)(=O)N(C)C[C@@H]2Oc3c(NS(=O)(=O)c4ccccc4)cccc3C(=O)N([C@@H](C)CO)C[C@H]2C)cc1 | inactive | inactive | inactive |
| NC(CC(=O)O)C(=O)O (centres undefined) | inactive | inactive | inactive |
| C[C@@H]1CN([C@@H](C)CO)S(=O)(=O)c2ccc(C3=CCCCC3)cc2O[C@@H]1CN(C)S(=O)(=O)c1cn(C)cn1 | inactive | inactive | inactive |
| C[C@@H]1CCCCO[C@H](CN(C)C(=O)Nc2ccc3c(c2)OCO3)[C@@H](C)CN([C@H](C)CO)C(=O)c2cc(NC(=O)Nc3ccc(C(F)(F)F)cc3)ccc2O1 | inactive | inactive | inactive |
| O=C(CCO[C@@H]1O[C@H](CO)[C@@H](O)[C@H](O)[C@H]1O)c1ccc(O)cc1 | inactive | inactive | inactive |
| CCCNC(=O)N1C[C@@H](O)COC[C@H]2O[C@H](CC(=O)NCc3ccncn3)CC[C@@H]21 | inactive | inactive | inactive |
| CC(C)N1C[C@H](C)[C@@H](CN(C)Cc2ccc(Oc3ccccc3)cc2)Oc2c(NC(=O)C3CCN(C)CC3)cccc2C1=O | inactive | active | inactive |
| C[C@@H]1CN([C@@H](C)CO)C(=O)c2cc(C#Cc3ccccc3F)cnc2O[C@@H]1CN(C)S(=O)(=O)c1ccccc1 | inactive | inactive | inactive |
| C[C@@H]1CCCCO[C@H](CN(C)C(=O)Nc2ccc3c(c2)OCO3)[C@@H](C)CN([C@@H](C)CO)C(=O)c2cc(NS(=O)(=O)c3ccccc3)ccc2O1 | inactive | inactive | inactive |

| SMILES | cytotoxicity call (HSkMC) | cytotoxicity call (HepG2) | growth inhibition call (S. aureus RN4220) |
| --- | --- | --- | --- |
| C[C@H](CO)N1C[C@H](C)[C@H](CN(C)Cc2ccncc2)Oc2ccc(NC(=O)CCCN(C)C)cc2C1=O | inactive | inactive | inactive |
| CCCCN1CCCCC1C(=O)Nc1c(C)cccc1C.Cl (centres undefined) | inactive | inactive | inactive |
| Cc1noc(C)c1NC(=O)Nc1ccc2c(c1)C(=O)N([C@H](C)CO)C[C@H](C)[C@@H](CN(C)C(=O)Nc1ccc(C(F)(F)F)cc1)O2 | inactive | inactive | inactive |
| C[C@@H]1CCCCO[C@H](CN(C)S(=O)(=O)c2cn(C)cn2)[C@@H](C)CN([C@@H](C)CO)C(=O)c2cc(NS(=O)(=O)c3cn(C)cn3)ccc2O1 | inactive | inactive | inactive |
| C[C@H](CO)N1C[C@H](C)[C@@H](CN(C)Cc2ccncc2)OCCCC[C@H](C)Oc2ccc(NC(=O)Nc3ccccc3)cc2C1=O | inactive | inactive | inactive |
| CO[C@H]1CN(C)C(=O)c2cc(NS(=O)(=O)c3cn(C)cn3)ccc2OC[C@@H](C)N(CCC(F)(F)F)C[C@H]1C | inactive | inactive | inactive |
| CN(C)[C@@H]1C(=O)C(C(=O)NCN2CCCC2)=C(O)[C@@]2(O)C(O)=C3C(=O)c4c(O)cccc4[C@@](C)(O)[C@H]3C[C@@H]12 | inactive | inactive | active |
| C=C1c2cccc(O)c2C(=O)C2=C(O)[C@]3(O)C(O)=C(C(N)=O)C(=O)[C@@H](N(C)C)[C@@H]3[C@@H](O)[C@H]12 | inactive | inactive | inactive |
| O=C(C[C@@H]1C=C[C@@H](NC(=O)Cc2ccccn2)[C@H](CO)O1)NCCc1ccncc1 | inactive | inactive | inactive |
| C[C@@H]1CN([C@@H](C)CO)C(=O)c2cccc(NC(=O)CCCCCC(=O)Nc3ccccc3N)c2O[C@H]1CN(C)C(=O)Nc1ccc(C(F)(F)F)cc1 | inactive | inactive | inactive |
| C[C@@H]1CN([C@H](C)CO)C(=O)c2cc(NC(=O)CCC(F)(F)F)ccc2O[C@@H](C)CCCCO[C@@H]1CN(C)S(=O)(=O)c1ccccc1 | inactive | inactive | inactive |
| Cc1ccc(S(N)(=O)=O)c(C)c1 | inactive | inactive | inactive |
| C[C@H]1CN([C@@H](C)CO)C(=O)c2cc(NS(=O)(=O)c3cn(C)cn3)ccc2O[C@H]1CN(C)S(=O)(=O)c1ccc(F)cc1 | inactive | inactive | inactive |
| C[C@@H]1CN([C@@H](C)CO)C(=O)c2cc(NS(=O)(=O)c3ccccc3)ccc2O[C@H]1CN(C)CC1CC1 | inactive | inactive | inactive |
| Cc1noc(C)c1NC(=O)N(C)C[C@H]1Oc2ccc(NS(C)(=O)=O)cc2C(=O)N([C@@H](C)CO)C[C@@H]1C | inactive | inactive | inactive |
| CCOCC(O)COc1ccc(NC(=O)CC[S+](C)C)cc1.Cc1ccc(S(=O)(=O)[O-])cc1 (centres undefined) | inactive | inactive | inactive |
| COc1cc2ccc(=O)oc2c(OC)c1OC | inactive | inactive | inactive |
| C[C@H](CO)N1C[C@H](C)[C@@H](CN(C)S(=O)(=O)c2cn(C)cn2)Oc2c(NC(=O)Nc3ccc4c(c3)OCO4)cccc2C1=O | inactive | inactive | inactive |
| CNC[C@@H]1OCCCC[C@H](C)Oc2ccc(NC(=O)c3ccncc3)cc2C(=O)N([C@H](C)CO)C[C@@H]1C | inactive | inactive | inactive |
| CCCNC(=O)N(C)C[C@H]1Oc2cc(C#Cc3cccc(F)c3)ccc2S(=O)(=O)N([C@H](C)CO)C[C@@H]1C | inactive | inactive | inactive |
| C[C@@H]1CCCCO[C@@H](CN(C)C(=O)Nc2cccc3ccccc23)[C@H](C)CN([C@H](C)CO)C(=O)c2cc(NC(=O)CCCN(C)C)ccc2O1 | inactive | inactive | inactive |
| C/C(=C\CC[C@@H](C)[C@H]1C[C@@H](O)[C@@]2(C)[C@H]3CC[C@H]4C(C)(C)[C@@H](O[C@@H]5O[C@@H](CO[C@H]6O[C@@H](CO)[C@@H](O)[C@@H](O)[C@@H]6O)[C@@H](O)[C@@H](O)[C@@H]5O)CC[C@@]45C[C@@]35C[C@@H](O)[C@]12C)C(=O)O[C@H]1O[C@@H](CO)[C@@H](O)[C@@H]1O | inactive | inactive | inactive |
| COc1ccc(NC(=O)Nc2ccc3c(c2)C(=O)N([C@H](C)CO)C[C@@H](C)[C@H](CN(C)C(=O)C2CCCCC2)OCCCC[C@H](C)O3)cc1 | inactive | inactive | inactive |
| O=C(C[C@H]1CC[C@@H]2[C@H](COC[C@@H](O)CN2C(=O)c2ccccc2F)O1)N1CCN(c2ccccc2)CC1 | inactive | inactive | inactive |
| NC(Cn1ccc(=O)c(O)c1)C(=O)O (centres undefined) | inactive | active | inactive |
| COCCOC(=O)N1C(=O)[C@@]2(c3cc(C#CCC(C(=O)OC)C(=O)OC)ccc31)[C@H](C(=O)N1CCCCCCC1)[C@H]1C(=O)O[C@H](c3ccccc3)[C@H](c3ccccc3)N1[C@@H]2c1ccc(O)cc1 | inactive | active | active |
